# According to PubChem BioAssay AID686970 (National Center for Advancing Translational Sciences (NCATS), 2013):
# Out of some 360,000 compounds screened, about 6,000 (1.7%) were called active. The inconclusive results got no clear call from the source; some entries with a clear call stand among them for comparison. Calls follow the shape of the dose curve; as a rule, active = well fitted cell-killing curve with a large enough effect; inconclusive = small, poorly fitted or top-dose-only effect, or effect the other way; inactive = flat fitted curve, though single readings scatter. No potency is given beside an inconclusive call; the fits are too rough.
# Assay: qHTS for induction of synthetic lethality in tumor cells producing 2HG: qHTS for the HT-1080-NT fibrosarcoma cell line;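 also: NT is the 2HG producing partner of a matched IDH1 knockdown line; nearly all actives have a fitted effect of over 55% in size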;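 as to activity, negative = less viability: 0% = DMSO-treated cells and -100% = media-only wells without cells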
# Details: HT-1080-NT fibrosarcoma viability, CellTiter-Glo ATP luminescence, 48 h; activity, negative = less viability: at 46.1 µM (top of the series) unless noted
# Procedure, shortened: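 Viability by CellTiter-Glo luminescence after 48 h compound exposure at 37C of HT-1080-NT cells (750/well, RPMI, 5% FBS). % activity scaled between DMSO wells and medium-only wells, then curve-fitted and categorized by curve class.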
# Potency is read from the fitted curve at half-maximal effect; tags tell the direction and shape of the fitted curve.
Structure (SMILES),Potency,"activity, negative = less viability"
O=C1/C(=C/N(C(=O)c2ccco2)c2ccc(Br)cc2)Sc2ccccc21,"inconclusive [cytotoxic, partial curve]",
O=Nc1c(O)n(Cc2ccc(Cl)cc2Cl)c2ccccc12,"inconclusive [cytotoxic, single point]",
COc1cc(-c2noc(C)c2/C=C/c2ccc(OC(C)=O)cc2)cc(OC)c1OC,active: 0.366 µM,
Cc1cc(C(=O)COc2ccccc2C(N)=O)c(C)n1CC1CCCO1 (configuration not stated),"inconclusive [cytotoxic, partial curve]",
CO/N=C1\CCCc2c(C(=O)NN)sc(SC)c21,active: 16.4 µM,
C=CCn1c(N)c(C(=O)NCC2CCCO2)c2nc3ccccc3nc21 (configuration not stated),,inconclusive: -30.5% [cytotoxic]
COc1cc(C(=O)N(C)CCOc2ccccc2)ccc1OCC(=O)Nc1cccc(C(F)(F)F)c1,"inconclusive [cytotoxic, single point]",
CCOC(=O)C1(C)CCCN1C(=O)c1c(F)cccc1F (configuration not stated),"inconclusive [rising, single point]",
COc1ccc([N+](=O)[O-])cc1N(CC(=O)NCC1CCCO1)S(C)(=O)=O (configuration not stated),inactive,
CCCCNC(=S)Nc1ccc([N+](=O)[O-])cc1,"inconclusive [cytotoxic, single point]",
Cc1ccc(CSc2nnc(SCC(=O)N/N=C/c3c[nH]c4ccccc34)s2)cc1,active: 20.6 µM,
Oc1ccc(C2=NN(c3ccccc3)C(c3ccc(F)cc3)C2)cc1 (configuration not stated),active: 18.4 µM,
CC(=O)Nc1cccc(-c2csc(Nc3ccccn3)n2)c1,"inconclusive [cytotoxic, single point]",
O=C(NCc1ccccc1)c1cc(C2COCCN2S(=O)(=O)c2ccccc2)on1 (configuration not stated),"inconclusive [rising, single point]",
CC(=O)c1cc(C#N)c(SCc2ccccc2C#N)nc1C,"inconclusive [cytotoxic, single point]",
O=C(NCC(=O)N1CCCC1)c1ccc(Br)o1,"inconclusive [rising, single point]",
CCCC(=O)N1CC2(CCC)CN(C(=O)CCC)CC(CCC)(C1)C2=O,inactive,
CCOC(=O)NC(=O)c1cn(CCN(C)C)c(=O)[nH]c1=O,,inconclusive: 34.9%
OC(c1ccccc1)(c1nc(-c2ccc3c(c2)OCO3)cs1)C(F)(F)F (configuration not stated),"inconclusive [cytotoxic, single point]",
Cc1c(NS(=O)(=O)c2cccs2)cccc1-c1nc2cccnc2s1,"inconclusive [cytotoxic, single point]",
COc1ccc2nc(N=Nc3ccc(O)c4ccccc34)sc2c1,active: 7.31 µM,
COc1cc(C(=O)N/N=C(\c2ccccc2)c2ccccn2)cc(OC)c1OC,"inconclusive [cytotoxic, full curve]",
CCOC(=O)COc1ccccc1/C=C\[N+](=O)[O-],active: 8.2 µM,
COc1ccc(CNc2ncnc3ccccc23)cc1,"inconclusive [cytotoxic, partial curve]",

Structure (SMILES),Potency,"activity, negative = less viability"
O=C(CCC(=O)N1CCCCCC1)Nc1ccc([N+](=O)[O-])cc1,active: 6.51 µM,
COCC(=O)N1C[C@H]2CON(C)[C@H]2C[C@H]1c1cccc(-c2ccccc2OC)c1,inactive,
Oc1ccc(/C=N/Nc2cccc3cccnc23)c(O)c1,"inconclusive [cytotoxic, single point]",
CCn1c(CNC(=O)c2cccc(C)c2)nnc1SCC(=O)Nc1cccc(OC)c1,"inconclusive [cytotoxic, single point]",
CCOC(=O)C1=C(C)N=C2c3ccccc3C(=O)C2C1c1ccc(C)cc1 (configuration not stated),"inconclusive [cytotoxic, partial curve]",
CC(C)(C(=O)O)c1ccc([C@H](O)CCCN2CCC(C(O)(c3ccccc3)c3ccccc3)CC2)cc1,,inconclusive: 22.9%
O=C(NCC(F)(F)F)C1C(=O)Nc2ccccc2C(=O)N1C1CCCC1 (configuration not stated),inactive,
COC(=O)c1ccc(NC(=O)COc2ccccc2OC)cc1,"inconclusive [rising, partial curve]",
O=C(CN1CCN(c2nc(-c3ccc(F)cc3)cs2)CC1)NCc1ccc2c(c1)OCO2,"inconclusive [cytotoxic, single point]",
N#C/C(=N\Nc1ccc(Cl)cc1)C(=O)c1ccccc1,active: 2.59 µM,
COC(=O)c1[nH]c2ccccc2c1NC(=O)c1c(F)cccc1F,inactive,
CN1C(=O)/C(=C\c2ccccc2F)Sc2ccc(C(=O)NC3CCN(Cc4ccccc4)CC3)cc21,active: 20.6 µM,
COc1ccc(-c2noc(CCCC(=O)N3CCOCC3)n2)cc1,inactive,
C=CCn1c(=O)[nH]c2cc(C(=O)N3CCN(c4cc(C)ccc4C)CC3)ccc2c1=O,inactive,
Cc1cc(C)c2c(CC(=O)NCc3ccco3)coc2c1,"inconclusive [cytotoxic, single point]",
COc1ccc(NC(=O)c2ccc3nc(C)sc3c2)cc1,inactive,
CCc1ccc(C(CNC(=O)c2ccc3c(=O)n(-c4ccccc4F)c(=S)[nH]c3c2)N(C)C)cc1 (configuration not stated),"inconclusive [cytotoxic, single point]",
COc1ccc(NC(=O)c2cc3n(n2)C(C(F)(F)F)CC(c2ccc(OC)cc2)N3)cc1 (configuration not stated),"inconclusive [cytotoxic, single point]",
COc1cc2c(cc1OC)[C@@H](NC(=O)CCc1ccccc1)[C@H](O)C2,inactive,
CC(C)Oc1cccc(C(=O)C2CCCN(Cc3ccc(Oc4ncccn4)cc3)C2)c1 (configuration not stated),"inconclusive [cytotoxic, single point]",
O=C(Nc1ccccc1)C1C(c2ccccc2)C1(Cl)Cl (configuration not stated),"inconclusive [cytotoxic, single point]",
O=C(Nc1ccc(S(=O)(=O)Nc2ccccn2)cc1)c1ccc(Cl)cc1Cl,inactive,
CCOC(=O)N(C)c1c(CC)nc2c(OCc3cc(Cl)cc(Cl)c3)cccn12,"inconclusive [cytotoxic, single point]",
